Experimental data reported in PubChem BioAssay AID1347120 (National Center for Advancing Translational Sciences (NCATS), 2019).
About 930 (0.24%) of roughly 390,000 compounds were called active. The shares of active, inactive and inconclusive entries below differ from those in the screen. Calls come from the whole dose curve; as a rule, active = well fitted activation curve with a large enough effect; inconclusive = small, poorly fitted or top-dose-only effect; inactive = no such curve, though single readings can be large or run the other way. Potencies of inconclusive entries are doubtful fits and often do not repeat.

assay: qHTS for Suppressors of FUS Proteinopathy: Primary screen using FUS-linked yeast assay; note: nearly all actives have a fitted effect of over 55% in size;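 for growth rescue (activation): plate controls were DMSO vehicle for no effect and reference control for full effect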; details: S. cerevisiae FUS-expressing, OD600, 24 h; Potency: growth rescue; growth rescue (activation): at 76.6 µM (top of the series)
Outline: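 Yeast FUS proteinopathy model; galactose-induced FUS (2%), starting OD 0.005. Cpds in dilution series, 24hr, 30C, 99% humidity. Abs 600 nm growth. Pos ctrl CP55940 (top 92uM final); neg ctrl DMSO.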
Potency is the fitted concentration of half-maximal effect; tags give direction and shape of the fitted curve.

Structure (SMILES)	Potency	growth rescue (activation)
Cc1noc(C)c1S(=O)(=O)N(CC(=O)N1CCCCCC1)c1ccc(C(C)C)cc1	inconclusive: 12.6 µM [activator, partial curve]	
CNC(=O)NC(=O)CSc1nc2sccc2c(=O)n1-c1ccccc1	inconclusive: 10 µM [activator, partial curve, poor fit]	
Cc1ccc(Cl)cc1-c1cc(C(=O)N2CCc3ccccc3C2)[nH]n1	inconclusive: 35.5 µM [activator, single point]	
COc1ccc(Cc2nc3c4cnn(-c5ccccc5F)c4ncn3n2)cc1		inactive: -5.86%
CCOC(=O)N1C2C=CC(C2)N1C(=O)OCC		inactive: -1.12%
CCC(SC1=NCCS1)C(=O)Nc1nnc(-c2ccccc2OC)s1 (centres undefined)	inconclusive: 44.7 µM [activator, single point]	
c1ccc(-c2nn3c(C4CCCCC4)nnc3s2)cc1		inactive: 14.4%
Cc1cccc(C(=O)n2nc(-c3cccnc3)nc2NCc2ccccc2)c1		inactive: 33.7%
N#Cc1c(N)sc2c1CCN(CCc1ccccc1)C2	inconclusive: 31.6 µM [activator, single point]	
C=CC[C@@H](CC(=O)OC(C)(C)C)C(=O)OC[C@H]1CCCN1C(=O)[C@@H](CC=C)CC(=O)N(CCO)Cc1ccccc1	inconclusive: 31.6 µM [activator, partial curve, poor fit]	
CCc1nn(CC(=O)N(C)Cc2ccccc2)c(=O)c2cc3sccc3n12		inactive: 16.8%
Cc1cc(/C=C2\SC(=S)N(C)C2=O)c(C)n1-c1ccc(O)cc1		inactive: 15.6%
COc1cc(Cl)c(NS(=O)(=O)c2cc(-c3cc(C)no3)ccc2OC)c(OC)c1	inconclusive: 50.1 µM [activator, single point]	
O=C(C1=C(O)C(=O)N(CCN2CCOCC2)C1c1ccc(Cl)cc1)c1cc2ccccc2o1 (centres undefined)	inconclusive: 11.2 µM [activator, partial curve]	
C=CC[C@H](CC(=O)N(CCO)Cc1ccccc1)C(=O)N[C@H](COC(=O)[C@@H](CC=C)CC(=O)OC(C)(C)C)c1ccccc1	inconclusive: 15.8 µM [activator, partial curve, poor fit]	
COC(=O)[C@]12C[C@H](CC(=O)NCc3ccccc3)C(=O)N(Cc3cccc4ccccc34)C1=C[C@H](COCc1ccccc1)O[C@@H]2C	inconclusive: 25.1 µM [activator, single point]	
O=C(O)c1ccccc1CC(CCc1ccccc1)C(=O)O (centres undefined)		inactive: 1.08%
CC[n+]1c(/C=C/Nc2ccccc2)oc2ccccc21	inconclusive: 35.5 µM [activator, single point]	
Cc1ccc(NC(=O)c2ccc(CS(=O)(=O)Cc3ccccc3C)o2)cc1C		inactive: 2.2%
CCOC(=O)[C@@H]1[C@H]2COc3cc(OC)ccc3[C@H]2N2C(=O)N(c3ccc(C)cc3)C(=O)[C@@]12C	inconclusive: 31.6 µM [activator, single point]	
COc1ccc(S(=O)(=O)N(CC(=O)Nc2cc(Cl)ccc2C)Cc2ccccc2)cc1OC	inconclusive: 31.6 µM [activator, single point]	
CCOc1cc(-c2ccc(OC(=O)c3ccc(OC)cc3)c(OC)c2)cc(=O)c2c(C)oc(C)c12	inconclusive: 31.6 µM [activator, single point]	

Structure (SMILES)	Potency	growth rescue (activation)
O=C(Nc1ccc(Cl)c(-c2nc3ccccc3[nH]2)c1)c1cccnc1	inconclusive: 50.1 µM [activator, single point]	
O=C1Cc2ccccc2C(=O)N1		inactive: -2.14%
CC(=O)c1ccccc1NC(=O)COC(=O)c1c(C)nn(-c2ccccc2)c1C		inactive: 38.3%
COc1ccccc1Cc1c(-c2ccc(C)cc2)nc2ccc(Br)cn12		inactive: 10.3%
O=C(Cn1c(-c2ccccc2)noc1=O)Nc1ccc(N2CCCCCC2)cc1	inconclusive: 35.5 µM [activator, single point]	
O=C(c1ccco1)N(CCCN1CCOCC1)c1nc(-c2ccc(Cl)cc2)cs1		inactive: 18.8%
CC1=C(C(=O)N2CCOCC2)CC(CC(=O)NC2CCCCC2)C(=O)N1Cc1ccc(C(C)(C)C)cc1 (centres undefined)		inactive: 20%
COc1ccc2[nH]cc(/C=C/C(=O)c3ccccc3)c2c1	inconclusive: 14.1 µM [activator, partial curve, poor fit]	
O=C(C(NS(=O)(=O)c1cccs1)c1ccccc1)N1CCN(c2ccccc2)CC1 (centres undefined)	inconclusive: 31.6 µM [activator, partial curve, poor fit]	
COc1ccc(NCc2cc3cc4c(cc3n(CC(=O)Nc3ccc(C)c(C)c3)c2=O)OCO4)cc1	inconclusive: 17.8 µM [activator, partial curve]	
NS(=O)(=O)c1ccc(NC=C2C(=O)OC3(CCCCC3)OC2=O)cc1		inconclusive: 73.4% [activator]
NC(=O)c1ccc(-n2nc(C(F)(F)F)c3c2CCCC3)cc1		inactive: 40.9%
COc1ccc(OC)c(N2C(=O)c3ccccc3C2c2nnnn2-c2ccc3c(c2)OCCO3)c1 (centres undefined)	inconclusive: 25.1 µM [activator, partial curve]	
CCOC(=O)c1ccc(N2C(=O)c3[nH]nc(-c4ccc(OCC)cc4)c3C2c2cccs2)cc1 (centres undefined)	inconclusive: 28.2 µM [activator, single point]	
COc1ccc(-c2nc3scc(CCNC(=O)c4cccc(Br)c4)n3n2)cc1	inconclusive: 50.1 µM [activator, single point]	
CCOC(=O)c1c(-c2ccc(-c3ccccc3)cc2)csc1NC(=O)CNCCN(C)C	inconclusive: 50.1 µM [activator, single point]	
O=C(CSc1nc(O)c(Cc2ccccc2)c(=O)[nH]1)Nc1nc2c(s1)CCCC2	inconclusive: 28.2 µM [activator, single point]	
CC(C)(C)c1[nH]nc2c1C(c1cccnc1)C(C#N)=C(N)O2 (centres undefined)	inconclusive: 11.2 µM [activator, single point]	
N#CCC(=O)Nc1ccc(C(=O)NCC(c2ccco2)N2CCCCC2)cc1 (centres undefined)	inconclusive: 39.8 µM [activator, partial curve, poor fit]	
O=c1/c(=C/c2ccc(CNS(=O)(=O)c3ccccc3)o2)sc2n1CCN=2	inconclusive: 31.6 µM [activator, single point]	
O=C(CSc1ccc(Cl)cc1)NCc1ccncc1		inactive: -3.82%
OC[C@@H]1CN(Cc2ccc(-c3ccccc3)cc2)C[C@H](n2cnc3c(NC4CCC4)ncnc32)O1	inconclusive: 17.8 µM [activator, partial curve, poor fit]	

Structure (SMILES)	Potency	growth rescue (activation)
COc1ccc(OC)c(CCNC(=O)c2cnn(-c3ccc(C)cc3C)c2C2CCN(C(=O)OC(C)(C)C)CC2)c1	inconclusive: 17.8 µM [activator, partial curve, poor fit]	
Cc1cc(N2CCOCC2)nc2ccc(NC(=O)CCC(=O)N3CCCC(C)C3)cc12 (centres undefined)		inconclusive: 55% [activator]
CC1Sc2ccc(C(=O)Nc3ccc(S(=O)(=O)N(C)C)cc3)cc2NC1=O (centres undefined)	inconclusive: 35.5 µM [activator, single point]	
O=S1(=O)CC2c3ccc(F)cc3CN2CN1C1CCCC1 (centres undefined)		inactive: 30.9%
S=c1[nH]nc(-c2ccco2)n1-c1cccc2ccccc12	inconclusive: 50.1 µM [activator, partial curve, poor fit]	
O=C(CSc1ccc2c(c1)OCCO2)N1CCN(c2ccccc2O)CC1		inactive: 39.5%
Cc1cc(C)c2cc(CN(CC3CCCO3)S(=O)(=O)c3ccc4c(c3)OCCO4)c(=O)[nH]c2c1 (centres undefined)	inconclusive: 50.1 µM [activator, single point]	
Cc1ccc(NC(=O)c2cc(S(=O)(=O)NC3CCCCC3)ccc2F)cc1Cl	inconclusive: 50.1 µM [activator, single point]	
CCCCN1C(=O)c2ccccc2NC1c1ccc(OC)c(COc2ccc(NC(C)=O)cc2)c1 (centres undefined)	inconclusive: 17.8 µM [activator, single point]	
CCn1c(=O)cc(SCC(=O)NCCCN2CCN(c3ccc(F)cc3)CC2)c2ccccc21	inconclusive: 44.7 µM [activator, partial curve, poor fit]	
Cc1ccc(NC(=O)CSc2nc(=O)n(Cc3ccco3)c3c2CCC3)cc1F	inconclusive: 28.2 µM [activator, single point]	
CCCn1c(=S)[nH]c2cc(Cl)ccc21		inactive: -13.7%
Cc1cccc(NC(=O)COC(=O)c2ccccc2-c2nc3ccccc3s2)c1C	inconclusive: 39.8 µM [activator, single point]	
CCOC(=O)c1sc(N2C(=O)C(O)=C(C(=O)c3ccco3)C2c2ccco2)nc1C (centres undefined)	active: 28.2 µM	
Cn1c(=O)oc2cc(S(=O)(=O)N3CCCC(C(=O)N4CCc5ccccc5C4)C3)ccc21 (centres undefined)	inconclusive: 28.2 µM [activator, single point]	
Cn1c(SCc2nc3ccccc3s2)nnc1-c1ccc2c(c1)OCO2	inconclusive: 25.1 µM [activator, partial curve, poor fit]	
O=C1CN(C(=O)c2ccccc2F)C(c2ccc(F)cc2)c2cc(Br)ccc2N1 (centres undefined)	inconclusive: 39.8 µM [activator, single point]	
Cc1ccc(NC(=O)CS(=O)CC(=O)N(c2ccc(C)cc2)C(C)C(=O)NC2CCCCC2)cc1 (centres undefined)	inconclusive: 35.5 µM [activator, single point]	
CCOc1ccc(-n2c(C)cc(/C=N/N(C)C)c2C)cc1	inconclusive: 31.6 µM [activator, single point]	
CSCCC(C(=O)Nc1c(C)cccc1C)n1c(COc2ccc(C)cc2)nc2ccccc21 (centres undefined)	inconclusive: 35.5 µM [activator, single point]	
